# Data from the supplement of paper PMC10338343.
# ± gives the standard deviation. Over roughly 3,000 sequences, “pre-steady-state target cleavage rate” has its median near 0.0079; the highest 2% begin near 0.2. The list shows a part of the results, in another mix than the full data.
# System: MILI (PIWIL2) piRISC loaded with piRNA #2 (26 nt)
# Experiment: pre-steady-state target cleavage rate (min^-1); MIWI and MILI are mouse PIWI proteins and EfPiwi is from a freshwater sponge; tags in brackets are library labels; higher = faster piRNA-guided slicing of the target
# Details: guide: piRNA #2 5'p-UUAGGUAACCCAGUAGAUCCAGAGGA; auxiliary factor: 500 nM mouse GTSF1
# In short: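 In HEPES–potassium acetate buffer at 33 °C, […] transcribed, DNA-blocked target RNA library was mixed with 1 nM active affinity-purified piRISC carrying one synthetic guide, with or without 500 nM GTSF1 partner protein, for 0–8 or 0–960 min. Uncleaved targets were sequenced and normalised to depth and to weakly complementary targets; three trials were pooled and k3 was capped at 0.0001 min^-1. The pre-steady-state cleavage rate followed from a burst-and-steady-state fit.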
# 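Note: 1 nM active piRISC with 0.1 nM target library at 33 °C single turnover.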
row,Sequence,pre-steady-state target cleavage rate
1,CUUAAGCUCUGGAUCUACUGGGUUACCAUAA,0.0886 ± 0.019
2,CUUAUCCUCUGCAUCUACUGGGUUACCAAA,0.408 ± 0.12
3,CUUAAGGUGUGCAUCUACUGGGUUACCUAA,0.0305 ± 0.017
4,CUUAAGGACUGGUUCUACUGGGUUACCUAA,0.0227 ± 0.015
5,CUUAAGGAGAGGAUCUACUGGGUUACCAUA,0.00706 ± 0.0034
6,CUUAACCUGCUGGAUCUACUGGGUUACCUAA,0.12 ± 0.029
7,CUUAACCUCUGGAUCUUCUGGGUUAGCUAA,0.0589 ± 0.017
8,CUUAAGGAGUGCAUCUACUGGGUUACCUAA,0.0147 ± 0.0078
9,CUUAUCCUCAGGAUCUACUGGGUUACCUUA,0.0743 ± 0.016
10,CUUAACCUCUGGAUGUACUGCGUUACCUAA,0.0173 ± 0.0066
11,CUUAAGGUCUGGAUCUACUGGGUUCCCUAA,0.0161 ± 0.0069
12,CUUAACCUCUGGAACUACUGGGUUACCUUA,0.154 ± 0.045
13,CUUAUGCUCUGGAUCUAGUGGGUUACCUAA,0.0331 ± 0.0066
14,CUUAUCCUCUCGAUCUACUGGGUUAGCUAA,0.116 ± 0.027
15,CUUAAGGUCUGGAACUACUGGGUUACCUAA,0.0452 ± 0.019
16,CUUAUCCUGUGGAUCUAGUGGGUUACCUAA,0.0634 ± 0.01
17,CUUAUCCUGUGGAUCUACUGGGAUACCUAA,0.0135 ± 0.0047
18,CUUAUCCUCUGGAUCUACUGGGUUACAUAA,0.0919 ± 0.021
19,CUUAUCCUCUGCAUCUUCUGGGUUACCUAA,0.17 ± 0.038
20,CUUAACCUCUGGAUCUACUGGGUGACCUAA,0.0533 ± 0.014
21,CUUAACCGUCUGGAUCUACUGGGUUACCUAA,0.0898 ± 0.024
22,CUUAAGCUCUGGAUCUACUGGGUGUACCUAA,0.0345 ± 0.0091
23,CUUAAGGUCUGGAUCUACUGGGAUUACCUAA,0.0236 ± 0.008

row,Sequence,pre-steady-state target cleavage rate
1,CUUAUCCACUGGAUCAACUGGGUUACCUAA,0.0536 ± 0.0086
2,CUUAAGCUGUGGAUCAACUGGGUUACCUAA,0.0291 ± 0.011
3,CUUAUCCUUGGAUCUACUGGGUUACCUAA,0.127 ± 0.04
4,CUUAACCUGUGCAUCUACUGGGUUACCUAA,0.123 ± 0.026
5,CUUAACCUCUGGAUCUACUGGGUUACGUAA,0.0671 ± 0.018
6,CUUAACCUCUGGUUCUACUGGGUUACCUAA,0.141 ± 0.031
7,CUUAUCCUCAGGAUCUACUGCGUUACCUAA,0.0104 ± 0.0053
8,CUUAUCCUCUCGGAUCUACUGGGUUACCUAA,0.0384 ± 0.011
9,CUUAAGGAGAGGAUCUACUGGGUUACCCUAA,0.00484 ± 0.0047
10,CUUAUCCACUGGAUCUACUGGGAUACCUAA,0.0244 ± 0.0059
11,CUUAAGCUCUCGAUCUUCUGGGUUACCUAA,0.127 ± 0.02
12,CUUAAGGUCUGGUUCUACUGGGUUACCAAA,0.0161 ± 0.007
13,CUUAAGGAGUGGAUCUACUGGGUUAGCCUAA,0.0282 ± 0.013
14,CUUAACCUCUGCAUCUUCUGGGUUACCUAA,0.112 ± 0.023
15,CUUAACCUCUGGAUCUACUGGGAUUCCUAA,0.0791 ± 0.036
16,CUUAAGGACUGGAUCUACUGGGUUAUCUAA,0.0246 ± 0.015
17,CUUAAGCUCUGGAUGCUACUGGGUUACCUAA,0.0393 ± 0.012
18,CUUAAGCACUGGAUCUACUGGGUUACCUAA,0.113 ± 0.02
19,CUUAAGCUCUGGUUCUACUCGGUUACCUAA,0.00378 ± 0.003
20,CUUAAGGUCUGGAUCAUCUGGGUUACCUAA,0.0302 ± 0.012
21,CUUAACCCUGGAUCUACUGGGUUACCUAA,0.0911 ± 0.024
22,CUUAAGGAGAGGAUCUACUGAGUUACCUAA,0.00486 ± 0.0035
23,CUUAUCCUCUGGAUCUACUGGGUUACCUA,0.159 ± 0.032

row,Sequence,pre-steady-state target cleavage rate
1,CUUAAGGACUGGAUCUACUAGGUUACCUAA,0.025 ± 0.014
2,CUUAUCCUCUCGAUGUACUGGGUUACCUAA,0.12 ± 0.019
3,CUUAAGGAGUGGAUCUACUGGGUUACCUCAA,0.0289 ± 0.0095
4,CUUAAGGUCUGCAUCUACUGGGUUAGCUAA,0.0234 ± 0.0095
5,CUUAACCUCUGGAUCUACUGGGUUACCUAAA,0.0972 ± 0.022
6,CUUAAGCUCUCGAUCUACUGGCUUACCUAA,0.00378 ± 0.0026
7,CUUAAGGUCUGGAUCAACUGGGUUACGUAA,0.00629 ± 0.0038
8,CUUAACCUCUGGAUCUACUGAGUUACCUAA,0.0491 ± 0.013
9,CUUAAGGUCUGCAUCUACUGGGUUACCUUA,0.0365 ± 0.013
10,CUUAAGCUCUGCAUCUACUGCGUUACCUAA,0.0146 ± 0.0057
11,CUUAAGCUCUGGUUCUACUGGCUUACCUAA,0.00402 ± 0.003
12,CUUAACCUCUGGAUCAACUGGGAUACCUAA,0.018 ± 0.008
13,CUUAACCUCUGGUUCUACUGGGAUACCUAA,0.0951 ± 0.039
14,CUUAAGGUCUAGGAUCUACUGGGUUACCUAA,0.0231 ± 0.0063
15,CUUAUCCUCUGGAUCUACUGGGUAAGCUAA,0.126 ± 0.036
16,CUUAUCCUCUGGAUCUUCUGGGUAACCUAA,0.0373 ± 0.0099
17,CUUAAGGUCUGGAUCUACUGGGUUACUUAA,0.0785 ± 0.018
18,CUUAAGGAGAGGAUCUACUGGGUUGCCUAA,0.00497 ± 0.0039
19,CUUAAGGAGUGGAUCUAGUGGGUUUCCUAA,0.00754 ± 0.0029
20,CUUAUCCUCACCAUCUACUGGGUUACCUAA,0.127 ± 0.051
21,CUUAAGGAGACGAUCUACAGGGUUACCAAA,0.00536 ± 0.0036
22,CUUAACCUUCUGGAUCUACUGGGUUACCUAA,0.106 ± 0.021
23,CUUAACCUCUGGAUGAUCUGGGUUACCUAA,0.065 ± 0.02

row,Sequence,pre-steady-state target cleavage rate
1,CUUAACCUCUGGAUCUACUGCGUUACCUUA,0.00986 ± 0.005
2,CUUAACCUCUCGAUCUACUGGGUUACCUUA,0.139 ± 0.026
3,CUUAUGCUCUGGAUCUACUGGGUUACGUAA,0.0534 ± 0.011
4,CUUAACCUCUGGAUCAACUGGGUAACCUAA,0.0313 ± 0.011
5,CUUAAGGACUGGAUCUAGUGGGUUACCUUA,0.0338 ± 0.0096
6,CUUAUCCUCUCGAACUACUGGGUUACCUAA,0.105 ± 0.016
7,CUUAACCUCUGGAUCUACUGGGUUACCUCA,0.103 ± 0.025
8,CUUAAGGAGUGGAUCUACUGGGUUGACCUAA,0.00879 ± 0.0042
9,CUUAACCUCCGGAUCUACUGGGUUACCUAA,0.0951 ± 0.027
10,CUUAACCUCUGGAUCUACUGGGAUACCAAA,0.0469 ± 0.018
11,CUUAAGGACUGGAUCUAGUGGGUUACCUAA,0.044 ± 0.011
12,CUUAACCUCUGGAUGUAGUGGGUUACCUAA,0.0952 ± 0.015
13,CUUAACCUCAGGAUCUACUGGGUUACGUAA,0.0145 ± 0.0078
14,CUUAACCUCUGGAUGUACUGGGUUUCCUAA,0.147 ± 0.059
15,CUUAAGCUCUGGAUCAACUGGGUUACCUAA,0.0329 ± 0.01
16,CUUAAGGUCUGGUUCUAGUGGGUUACCUAA,0.0785 ± 0.017
17,CUUAACCUCUGCAUCUACUGGGUUUCCUAA,0.14 ± 0.059
18,CUUAAGGUCUGGAUCUUCUGGGUUACCUUA,0.0322 ± 0.0091
19,CUUAAGGAGACCAUGUACUGGGUAACCUAA,< 0.0001
20,CUUAUCGUCUGGAUCAACUGGGUUACCUAA,0.0335 ± 0.009
21,CUUAAGGUCUGGAUCUUCAGGGUUACCUAA,0.0706 ± 0.011
22,CUUAAGCUUGGAUCUACUGGGUUACCUAA,0.084 ± 0.027
23,CUUAAGCUCUGCAUCUUCUGGGUUACCUAA,0.0479 ± 0.0093
